Measurements: PubChem BioAssay AID1347041 (National Center for Advancing Translational Sciences (NCATS), 2019)
In all, about 480,000 compounds went through this assay and about 740 (0.15%) were called active. Inconclusive means that the source gave no clear call. Such entries were picked first, then a sample of the others. Rule as the data show it: active = activity change below about -30%; inconclusive = mostly about -25% to -30%; inactive = weaker than that.

molecular target: L-lactate dehydrogenase A chain (Homo sapiens) (UniProt P00338); experiment: qHTS assay for inhibitors of human lactate dehydrogenase; conditions: purified LDHA, NADH/diaphorase-resazurin fluorescence; active compounds read low;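 also: values are at about 110 or 230 µM; plate controls were DMSO wells for no effect and wells without enzyme for full effect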
In short: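 LDH5 2 nM; NADH 0.06 mM, pyruvate 0.2 mM; 200 mM Tris pH 7.4, EDTA, Tween-20; 5 min RT. Detection: diaphorase 0.133 mg/mL + resazurin 37 µM, fluorescence ex540/em590 at 0 and 20 min; normalized to enzyme-free and DMSO wells.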

Activity change, inactive:
O=S(=O)(NC1CCN(S(=O)(=O)c2ccc(Br)cc2)CC1)c1cccs1 9.35%
Cc1cccc(OCCCSc2nc(-c3ccc(C(C)(C)C)cc3)nc3cc(=O)[nH]n23)c1C 5.14%
COc1ccccc1N(C)S(=O)(=O)c1ccc(C(=O)Nc2c(C)cccc2C)cc1 2.86%
CCCC(=O)Nc1cc(-c2nc3ncccc3o2)ccc1C -11%
O=C(COc1ccccc1)N1CCN(c2nnc(-c3ccccc3)c3ccccc23)CC1 -5.44%
O=C(NNc1c2ccccc2nc2ccccc12)c1ccc(Cl)cc1 1.42%
CCOC(=O)c1c(NC(=O)Cn2nnc(-c3ccccc3)n2)sc(CC)c1C 6.17%
COc1ccc(S(=O)(=O)Nc2c(O)c3ccccc3oc2=O)cc1 -10.1%
CCOC(=O)CSc1nc2c(c(=O)[nH]c(=O)n2C)n1Cc1cccc(Br)c1 2.32%
COc1ccc(C(=O)NCCSCc2cccc(Cl)c2)cc1OC -0.432%
CN(CC(=O)Nc1cccc(F)c1)C(=O)c1cc(-c2ccco2)nc2ccccc12 -8.57%
Cc1cccc2cc(CN(Cc3ccco3)C(c3nnnn3CCc3ccccc3)C(C)C)c(=O)[nH]c12 (configuration not stated) -4.75%
COCCn1c(C)cc(C(=O)COC(=O)c2ccc(S(=O)(=O)N(C)C)cc2)c1C -5.26%

Activity change, active:
Cc1[nH]n(-c2ccc(F)cc2)c(=O)c1CCC(=O)Nc1ccc(C#N)cc1 -30.2%
Cc1ccc(NC(=O)CSCC(=O)OC(C)C(=O)Nc2ccc(S(N)(=O)=O)cc2)c(C)c1 (configuration not stated) -43.8%
COc1ccc(CNC(=O)C(=O)Nc2ccc(C)cc2C)cc1 -30.8%
CC1CN(C2CCN(S(=O)(=O)c3ccccc3)CC2)CC(C)O1 (configuration not stated) -32.4%
Cc1cnc(NC(=O)C(C)N2CCN(C)CC2)s1 (configuration not stated) -30.6%
COc1ccc(-c2nc3cc(NC(=O)c4ccccc4)ccc3o2)cc1 -38.8%
CCCC(C)NC(=O)Nc1cc(C(=O)NC2CC2)ccc1C (configuration not stated) -33.6%
C[C@@H]1CN([C@H](C)CO)C(=O)CCCn2nncc2CO[C@H]1CN(C)C -32.8%
[Cl][In]([Cl])[Cl] -80.3%

Activity change, inconclusive:
O=C(/C=C/c1ccc(-c2ccccc2Cl)o1)c1ccc(F)cc1 -26.2%
NCCOc1cnn(-c2ccccc2Cl)c(=O)c1Cl -25.3%
CCN1CCN(C(=S)NCC(C)C)CC1 -27.2%
CC1CCN(C2CCN(S(=O)(=O)c3ccc(F)cc3)CC2)CC1 -26.5%
O=S(=O)(c1ccc(F)cc1)N1CCC(N2CCCC2)CC1 -25.2%
CCCC1=[N+](CC)CCn2c(C)ccc21 -29.1%
O=C(OCc1cn([C@@H]2C[C@H](c3ccc(Cl)cc3)N(Cc3cccs3)C[C@H]2O)nn1)c1ccccc1 -26.1%
Cc1nc2cc(NS(=O)(=O)c3ccc(C(C)(C)C)cc3)ccc2o1 -27.1%
CCCN1C(=O)C(NC(=O)CC)(C(F)(F)F)N=C1c1ccccc1 (configuration not stated) -28.9%
O=C(O)CN(CCN(CC(=O)O)CC(=O)O)CCN(CC(=O)O)CC(=O)O -26.6%
OC(CC#CCN1CCCC1)(c1ccccc1)c1ccc(-c2ccccc2)cc1 (configuration not stated) -29.1%
Cc1[nH]c2ccc(F)cc2c1C=O -26.5%
NS(=O)(=O)c1ccc(NC(=O)CN2C(=O)COc3ccc(Cl)cc32)cc1 -26.5%
Cc1ccc(CNC(=O)c2cnccn2)s1 -25.4%
COCC(=O)N1CCN(c2oc(-c3ccco3)nc2C#N)CC1 -26%
Cc1cc(OS(C)(=O)=O)cc2c1C(=O)/C(=C/c1ccccc1F)O2 -28.9%
NS(=O)(=O)c1ccc(CCNC(=O)CCCCCn2c(=S)[nH]c3ccc(Br)cc3c2=O)cc1 -26.8%
CCN1CCN(CCCCOc2ccccc2F)CC1 -29.3%
COc1cc(CN2CCC(C(=O)NCC(C)(C)CN(C)C)CC2)ccc1OCc1ccccc1 -26.6%
CCc1cc(=O)n(CC(=O)N2CCCCC2C)c(-c2ccccc2)n1 (configuration not stated) -26.7%
CCOc1ccccc1CN(CCc1ccc2c(c1)OCO2)Cc1ccccn1 -26.6%
CCSc1ncc(Cl)c(C(=O)Nc2nnc(CC(C)C)s2)n1 -26.5%
CCOC(=O)c1ccccc1C(=O)N1CCOCCOCCOCC1 -26.7%
COc1cc(C2Nc3ccccc3-n3cc4c(=O)n(C)c(=O)n(C)c4c32)ccc1O (configuration not stated) -29%
NC(=O)Cc1csc(NC(=O)CCc2ncc(-c3ccc(F)cc3)o2)n1 -26.2%
Cc1ccc(N/N=C/C=C/c2ccccc2)cc1Cl -27.2%
CC(C)CNC(=O)NC(=O)CSc1nnc(-c2ccc(C(C)(C)C)cc2)n1Cc1ccco1 -25.4%
CCOC(=O)c1c(NC(=O)CN(C)C2CCN(C)CC2)sc(C(=O)Nc2ccccc2)c1C -28.1%
CN1/C(=C/c2cccc[n+]2CCO)Sc2ccccc21 -25.7%
O=C(CCc1ncc(-c2ccccc2F)o1)Nc1ccc(F)cc1 -28.3%
Cc1cc(NC(=O)CN2CCCCCCC2)no1 -26.5%
Cc1cc(C(=O)NCc2cccnc2N(C)C)no1 -29.1%
Cc1cc(C)nc(/N=C2\NC(=O)CC(C(=O)O)N2c2ccc(C)c(C)c2)n1 (configuration not stated) -26.7%
Brc1ccccc1CN1CCN(Cc2c[nH]c3ccccc23)CC1 -27.7%
Cc1cccc(-c2nc(SCc3cc(=O)c4c(C)cc(C)cc4[nH]3)n[nH]2)c1 -26%
